Test results as given in PubChem BioAssay AID686978 (National Center for Advancing Translational Sciences (NCATS), 2013).
Out of some 420,000 compounds screened, about 64,000 (15%) were called active. The inconclusive results got no clear call from the source; some entries with a clear call stand among them for comparison. The call rests on the fitted dose curve; in most records, active means well fitted inhibition curve with a large enough effect; inconclusive means small, poorly fitted or top-dose-only effect; inactive means flat fitted curve, though single readings scatter. Potencies of inconclusive entries are left out as doubtful fits.

test: qHTS for Inhibitors of human tyrosyl-DNA phosphodiesterase 1 (TDP1): qHTS in cells in absence of CPT; conditions: DT40 Tdp1-/- hTDP1 cells, no CPT, ATP luminescence, 48 h; activity change, negative = growth inhibition: at 46.2 µM (top of the series); further: nearly all actives have a fitted effect of over 55% in size
Outline: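 DT40 Tdp1-/-;hTDP1 cells, no CPT (DMSO vehicle only), 400 cells/well; compounds pin-transferred; ≥48 hr, 37 °C; CellTiter-Glo 30 min RT dark, luminescence read.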
On the % scale 0 is the no-effect control and ±100 the full control effect; potency means the concentration at half of the fitted maximal effect; tags describe the fitted curve by direction and shape.

| Structure (SMILES) | Potency | activity change, negative = growth inhibition |
| --- | --- | --- |
| COc1ccc(NC(=O)C2c3ccccc3OCC(=O)N2C2CC2)cc1 (stereo not given) | inactive | – |
| COc1ccc(N(C(=O)Cn2nnc(-c3ccc(F)cc3)n2)C(C)C(=O)NC2CCCC2)cc1 (stereo not given) | inconclusive [inhibitor, single point] | – |
| CCOc1ccc(CNC(=O)CCCn2c(=O)c3cccn3c3cccnc32)cc1 | inconclusive [inhibitor, partial curve] | – |
| C/C(=N\NC(=O)c1cccnc1)c1ccc(OC2OCCOC2Oc2ccc(/C(C)=N/NC(=O)c3cccnc3)cc2)cc1 (stereo not given) | active: 20.6 µM | – |
| CCOc1ccc(C(=O)N2CCc3cc(OC)c(OC)cc3C2COc2ccc3c(C)cc(=O)oc3c2)cc1OCC (stereo not given) | inconclusive [inhibitor, single point] | – |
| COc1cccc(CC(=O)OCC(=O)Nc2c(C)nn(-c3ccccc3)c2C)c1 | inactive | – |
| Cc1nn(Cc2ccc(Cl)c(Cl)c2)c(C)c1NC(=O)c1cc(-c2ccc3c(c2)OCO3)on1 | active: 20.6 µM | – |
| COc1ccc(-c2cc(-c3ccc(O)cc3)nc(N)c2C#N)cc1OC | inconclusive [inhibitor, single point] | – |
| CCCOc1ccc(OC(=O)c2ccc(-c3ccc(CCC)cn3)cc2)cc1 | inconclusive [inhibitor, single point] | – |
| C=CCS/C(=N\n1cnc2ccccc2c1=O)N1CCCCC1 | active: 18.4 µM | – |
| N#CC(C#N)=NNc1ccc(S(=O)(=O)N2CCCCC2)cc1 | active: 16.4 µM | – |
| COc1cccc(-c2sc3ccc(OC)cc3c2-c2ccc(OCCN3CCCCC3)cc2)c1 | inconclusive [inhibitor, single point] | – |
| COc1cc(OC)c(NC(=O)Cn2cccc2)cc1Cl | inactive | – |
| Cc1sc2ncnc(N3CCN(C(=O)c4ccco4)CC3)c2c1C | active: 20.6 µM | – |
| O=S(=O)(NCCc1csc(-c2cccc(F)c2)n1)c1cc(F)ccc1F | inconclusive [inhibitor, single point] | – |
| CC(C)(C)C1=Nn2c(nnc2-c2ccco2)SC1 | inconclusive [inhibitor, single point] | – |
| C=CCc1cc(/C=N/n2cnnc2)cc(OCC)c1O | inconclusive [inhibitor, single point] | – |
| CC(C)(C)c1ccc(C(=O)N2CCC(C(=O)NCc3ccco3)CC2)cc1 | inconclusive [inhibitor, single point] | – |
| S=c1[nH]c(-c2ccccc2)cn1/N=C/c1ccncc1 | inactive | – |
| Cc1cccc(C)c1NC(=O)C(NC(=O)c1ccccn1)c1ccccc1[N+](=O)[O-] (stereo not given) | inconclusive [inhibitor, single point] | – |
| O=C(N/N=C/c1cc([N+](=O)[O-])ccc1O)c1ccc2c(c1)OCCO2 | active: 1.46 µM | – |
| CCOc1cccc(-c2cnc3cccnn23)c1 | active: 10.3 µM | – |
| O=C(c1cc(C2CC2)nn1-c1ccccc1)N1CCN(S(=O)(=O)c2ccccc2F)CC1 | inactive | – |
| CC(=O)Nc1cc(-c2cccc(C(=O)N(C)C)c2)cn2c(-c3ccc(F)cc3)cnc12 | inconclusive [inhibitor, single point] | – |
| CN1CCC(N(C)S(=O)(=O)c2ccc(NC(=O)c3cccc(C#N)c3)cc2)CC1 | inactive | – |

| Structure (SMILES) | Potency | activity change, negative = growth inhibition |
| --- | --- | --- |
| O=C(CNC(=O)c1cccs1)N/N=C/c1ccc(Cl)cc1 | inactive | – |
| Cc1ccc(N2CC(C(=O)OCC(=O)c3c(N)n(CC(C)C)c(=O)n(C)c3=O)CC2=O)cc1 (stereo not given) | inconclusive [inhibitor, single point] | – |
| Cc1cc2ncn(S(=O)(=O)c3ccc(S(=O)(=O)N4CCCCCC4)cc3)c2cc1C | active: 20.6 µM | – |
| CC1CCc2c(sc3nc(SCC(=O)NCc4ccco4)nc(N)c23)C1 (stereo not given) | active: 13 µM | – |
| O=C(N/N=C/c1cccn1-c1ccc(O)cc1)c1cccc2ccccc12 | inconclusive [inhibitor, full curve, poor fit] | – |
| COc1ccccc1N1CCN(S(=O)(=O)c2cccs2)CC1 | inactive | – |
| C=CCNc1nc(C(=O)OCC(=O)Nc2c(Cl)cccc2C(F)(F)F)cs1 | inactive | – |
| Cc1cccc(-n2ccc(=O)c(C(=O)O)n2)c1 | inactive | – |
| CNC(=O)NC(=O)COC(=O)CCCSc1nc2ccccc2s1 | inactive | – |
| Cc1ccc2nc(NC(=O)CC3Oc4ccccc4NC3=O)sc2c1 (stereo not given) | inactive | – |
| COc1ccc(CCNC(=O)c2cc(Nc3ccccc3)nc3ccccc23)cc1OC | active: 8.2 µM | – |
| O=C(Cc1csc(N2CCOCC2)n1)N/N=C/c1ccc(O)c(O)c1O | inconclusive [inhibitor, single point] | – |
| CS(=O)(=O)N1CCN(Cc2ccc(C(F)(F)F)cc2)CC1 | – | inconclusive: -31.4% [inhibitor] |
| CCCCNC(=O)N(O)C1N(/N=C/c2ccco2)C(=S)SC1(C)C (stereo not given) | inactive | – |
| COc1ccc(-c2cc(C(=O)Nc3ccc(C)c(C)c3)no2)cc1 | inconclusive [inhibitor, single point] | – |
| O=C(Nc1ccc(S(=O)(=O)N(Cc2ccccc2)c2ccccc2)cc1)c1ccccc1F | inconclusive [inhibitor, full curve] | – |
| O=c1c2cc(Br)ccc2[nH]c(=S)n1Cc1cccnc1 | inactive | – |
| COc1ccc(CNC(=O)C(NC(C)=O)C(=O)Nc2ccc(OC)cc2)cc1 (stereo not given) | inactive | – |
| CC(C)(O)C#Cc1ccc(CN2CCN(CCc3ccccc3)C(CCO)C2)s1 (stereo not given) | inconclusive [inhibitor, single point] | – |
| O=C(Nc1ccc(Oc2cccc3ccccc23)cc1)c1ccco1 | inconclusive [inhibitor, single point] | – |
| Cc1cc(SCC#N)n2nc(C)c(-c3ccccc3)c2n1 | inactive | – |
| CCCCSc1ncc(C(=O)OCC)c(N)n1 | inconclusive [inhibitor, single point] | – |
| CCn1cc(Br)c(C(=O)NC(=S)Nc2ccc(C(=O)OC)cc2)n1 | inconclusive [inhibitor, partial curve] | – |
| CC1CCc2nc(NC(=O)C3COc4ccccc4O3)sc2C1 (stereo not given) | active: 20.6 µM | – |
| COc1ccc(OC)c(C2=Nn3c(nnc3-c3cccc(OC(C)C)c3)SC2)c1 | active: 11.6 µM | – |

| Structure (SMILES) | Potency | activity change, negative = growth inhibition |
| --- | --- | --- |
| Cc1cccc(NS(=O)(=O)c2cc(C(=O)NCc3ccccn3)ccc2C)c1 | inactive | – |
| Cc1nnc(SC(=O)N2c3ccccc3Sc3ccccc32)s1 | active: 10.3 µM | – |
| CCCn1c(=O)[nH]c(=O)c2c1nc(-c1ccc(OC(F)F)c(OC)c1)n2CCOC | inactive | – |
| C/C(=N\Nc1nncc2ccccc12)c1ccc(C(C)(C)C)cc1 | inconclusive [inhibitor, single point] | – |
| Cc1cccc(Nc2c(-c3ccc(O)cc3)nc3ncccn23)c1 | inconclusive [inhibitor, single point] | – |
| COC(=O)c1c(NC(=O)c2cccc(S(=O)(=O)N3CCN(C)CC3)c2)sc(C)c1C | active: 14.6 µM | – |
| CC(C)(C)OC(=O)N1CCC[C@H]1c1nnc(SCc2ccccc2Cl)o1 | inconclusive [inhibitor, single point] | – |
| COc1cccc(C(=O)NC2CC(C)(C)Cc3c2cnn3-c2cccc(F)c2)c1OC (stereo not given) | active: 18.4 µM | – |
| O=C(c1cc(N2C(=O)C3C4CCC(C4)C3C2=O)ccc1Cl)N1CCN(c2ccccc2)CC1 (stereo not given) | inconclusive [inhibitor, single point] | – |
| O=C(CCCCn1c(=O)c2ccccc2n(Cc2ccc(F)cc2Cl)c1=O)NCCc1ccc(Cl)cc1 | inconclusive [inhibitor, partial curve] | – |
| COc1ccc(/C=N/NC(=O)c2cccnc2)cc1CN1CCCc2ccccc21 | active: 11.6 µM | – |
| Cc1nc(CNS(=O)(=O)c2ccc3c(c2)CCCC3)cs1 | inconclusive [inhibitor, single point] | – |
| COc1cc2nc(=S)n(CCCN3CCOCC3)c(N)c2cc1OC | inactive | – |
| CCOC(=O)c1ccc(Nc2c(-c3ccc(OC)cc3)nc3nc[nH]n23)cc1 | active: 23.1 µM | – |
| CCCc1cc(=O)oc2c3c(cc(OCC(=O)NCCN4CCOCC4)c12)OC(C)(C)CC3 | inconclusive [inhibitor, single point] | – |
| CSc1ccc(OC2(C)CCN(Cc3ccc(-c4ccccn4)cc3)C2)cc1 (stereo not given) | inconclusive [inhibitor, single point] | – |
| COc1ccccc1C#CC1=CC(=O)C[C@H](c2ccc(F)cc2)C1 | active: 16.4 µM | – |
| C/C(=N\N=C1\NC(=O)CS1)c1cccs1 | inactive | – |
| C=C(C)CNC(=S)Nc1cccc2cnccc12 | inconclusive [inhibitor, partial curve, poor fit] | – |
| COC(=O)c1ccccc1NC(=O)C1CC=CCC1C(=O)O (stereo not given) | inconclusive [inhibitor, partial curve] | – |
| Cc1cccc(Nc2nnc(SCc3cn4ccsc4n3)s2)c1 | inconclusive [inhibitor, partial curve] | – |
| Cc1ccc(S(=O)(=O)N2CCN(c3nc(-n4ccnc4)nc4ccccc34)CC2)cc1 | inactive | – |
| Cc1ccc2c(c1)sc(=NC(=O)C1CC1)n2C | inconclusive [inhibitor, partial curve] | – |
| CSC1=C(C#N)C(C)C2=C(CC(C)(C)CC2=O)N1 (stereo not given) | inconclusive [inhibitor, single point] | – |
| CCOC(=O)c1cc2c(=O)n3ccccc3nc2n(CCCOC)c1=NC(=O)c1c(-c2c(F)cccc2Cl)noc1C | inconclusive [inhibitor, single point] | – |
